The RNAGym collection of RNA variant scans (doi:10.1093/nar/gkz1192)
The source gives no read counts; variants with many changes may rest on few reads.

B1: CPEB3 Ribozyme (parent)
chain: UAACAGGGGGCCACAGCAGAAGCGUUCACGUCGCAGCCCCUGUCAGAUUCUGGUGAAUCUGCGAAUUCUGCUGUAUAUCUC

Variants of: B1
Test: self-cleavage, relative activity (ratio to wild type); higher = more cleavage; in vitro, sequencing
In short: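 Barcoded CPEB3 ribozyme mutants, produced by rounds of error-prone PCR, self-cleaved while being transcribed with T7 RNA polymerase for 5 hours at 37°C and during a subsequent 15 min DNase I step before EDTA was added. Sequencing of template-switched cDNA on Illumina gave cleaved and total reads, and DNA sequencing assigned barcodes to variants. Each variant's relative activity is its cleaved/total read fraction divided by the unmutated ribozyme's fraction, averaged across three batches. A variant needed a minimum of 5 reads.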

Variant	self-cleavage
UAACAGGGGGCCGCAGCAGAAGCGUUCACUUCGCAGCCCCUGUCAGAUUCAGGUGAAUCAGCGAAUUCUGCUGUAUAUCUC [A13G G30U U51A U60A]	0.15
UAACAGGGGGCCGCAGCAGAAGCGUCCCCGUCGCAGCCCCUGUCAGAUUCUGGUGAAUCUGCGAAUACUGCUGUAUAUCUC [A13G U26C A28C U67A]	0.09
UAACAGGGGGCCGCAGCAGAAGCGCUCACGUCGCAGCCCCUGUCAGAUUCUGGUGAAUCAGCGAAUUCUGCUGUAUAUCAC [A13G U25C U60A U80A]	0.24
UAACAGGGGGCCGCAGCAGAAGCCUCCACGUCGCAGCCCCUGUCAGAUUCUGGUGAGUCUGCGGAUUCUGCAGUAUAUUUC [A13G G24C U26C A57G A64G U72A C79U]	0.07
UAACAGGGGGCCGCAGCAGAAGCGUUCACGUCGCAGCCCCAGUCAGAUUCUGGUGAAUCAGCGAGUUCUGCUGUAUACCUC [A13G U41A U60A A65G U78C]	0.23
UAACAGGGGGCCGCAGCAGAAGCGUUCACGUCGCAGCCCCAGUCGGAUACUGGUGAAUCUGCGAAUUCUGCUGUAUAUCUC [A13G U41A A45G U49A]	0.26
UAACAGGGGGCCGCAGCAGAAGCGUCCACGUCGCAGCCCCCGUCAGAUUCUGGUGAAUCCGCGAAUUCUGCUGUAUAUCUC [A13G U26C U41C U60C]	0.33
UAACAGGGGGCCGCAGCAGAAGCGCUCACGUCGCAGCCCCUGCCAGAUUCUGGUGAAUCUGCGAAAUCUGCUGUAUACCUC [A13G U25C U43C U66A U78C]	0.09
UAACAGGGGGCCGCAGCAGAAGCGUUCACGCCGCAGCCCCUGUCAGAUUCUGGUGAAUCUGCGAAAUCCGCUGUAUAUCUC [A13G U31C U66A U69C]	0.07
UAACAGGGGGCCGCAGCAGAAGCGUCCACGUCGCAGCCUCUGUCAGGUUCUGGUGAAUCUGCGAAUUCUGCUGUAUAUCUC [A13G U26C C39U A47G]	0.16
UAACAGGGGGCCGCAGCAGAAGCGUCCACGUCGCAGCCCCAGUCAGAUUCUGGUGAAUCUGCGAAUUCUGCUGUAUAACUC [A13G U26C U41A U78A]	0.36
UAACAGGGGGCCGCAGCAGAAGCGUUCACGUCGCAGCCCCUGUCAGAUUCUGGUGAAUCUCCGUAUUCUGCUGUAUAUCUC [A13G G61C A64U]	0.11
UAACAGGGGGCCGCAGCAGAAGCGUUCACGCCGCAGCCCCUGUCGGAUUCUGGUGAAUCUGCGGAUUCUGCUGAAUAUCUC [A13G U31C A45G A64G U74A]	0.2
UAACAGGGGGCCGCAGCAGAAGCGUCCACGUCUCAGCCCCUGUCAGACUCUGGUGAAUCUGCGAAUUCUGCUGUAUAUCUC [A13G U26C G33U U48C]	0.07
UAACAGGGGGCCGCAGCAGAAGCGUUCACGCCGCAGCCCCUGUCAGAUUCUGGUGAAUAUGCGAAUUCUGCCGUAUAUCUC [A13G U31C C59A U72C]	0.17
UAACAGGGGGCCGCAGCAGAAGCAUUCACGUCGCAGCCCCUGACAGAUUCUGGUGAAUCUGCGAAUUCUGCUGUAUAUCUC [A13G G24A U43A]	0.07
UAACAGGGGGCCGCAGCAGAAGCGUUCACGUCGCAGCCCCCGUCAGACCCUGGUGAAUCUGCGAAUUCUGCUGUAUAUCUC [A13G U41C U48C U49C]	0.23

Variant	self-cleavage
UAACAGGGGGCCGCAGCAGAAGCGUUCACGUCGCAGCCCCAGUCAGAUUCGGGUGAAUCUGCGAAGUCUGCUGUAUAUCUC [A13G U41A U51G U66G]	0.1
UAACAGGGGGCCGCAGCAGAAACGUUCACGUCGCAGCCCCUGUCAGAUUCUGGUGAAUCUGCGAAUUCUGCCGUAUAUCUC [A13G G22A U72C]	0.09
UAACAGGGGGCCGCAGCAGAAGCGACCGCGUCGCAGCCCCUGUCAGAUUCUGGUGAUUCUGCGAAUUCUGCUGUAUAUCUC [A13G U25A U26C A28G A57U]	0.11
UAACAGGGGGCCGCAGCAGAAGCGUUCACGUCGCAGCCCCUGUCAUAUCCUGGUGAAUCUGCGAAUUCUGCUGUAUAUCUC [A13G G46U U49C]	0.07
UAACAGGGGGCCGCAGCAGAAGCGCUCACGUCGCAGCCCCUGUCAGAUUCUGGUGAAUCUGCGAUUUCUACUGUAUGCCUC [A13G U25C A65U G70A A77G U78C]	0.06
UAACAGGGGGCCGCAGCAGAAGCGUUCACGUCGCAGCCCCCGUCAGAUUCUGGUGAACCUGCGAAUACUGCUGUAUACCUC [A13G U41C U58C U67A U78C]	0.13
UAACAGGGGGCCGCAGCAGAAGCGUUCACGUCGCAGCCCCUGUCAGAUUCUGGUGAAUCUGCAAAUUCUACCGUAUAUCUC [A13G G63A G70A U72C]	0.06
UAACAGGGGGCCGCAGCAGAAGCGUUCACGUCGCAGCCCCUAGCAAAUUCUGGUGAAUCUGCGAAUUCUGCUGUAUAUCUC [A13G G42A U43G G46A]	0.07
UAACAGGGGGCCGCAGCAGAAGCGUUCACGUCGCAGCCCCUAUCAGAUUCUGGUGAAUCUGCGAAUUCUGCAGUAUAUCUC [A13G G42A U72A]	0.15
UAACAGGGGGCCGCAGCAGAAGCGUUCACGGCGCAGCCCCUGUCAGAUUCAGGCGAAUCUGCGAAUUCUGCUGUAUAUCUC [A13G U31G U51A U54C]	0.57
UAACAGGGGGCCGCAGCAGAAGCGUUCACGUCGCAGCCCCAGUCAGAUUCUGGUCAAUCUGCGAAUUCUGCUGUAUAUCUC [A13G U41A G55C]	0.26
UAACAGGGGGCCGCAGCAGAAGCGUUCACGCCGCAGCCCCAGUCAGAUUCUGGGGAAUCUGCGAAUUCUGCUGUAUAUCUC [A13G U31C U41A U54G]	0.1
UAACAGGGGGCCGCAGCAGAAGCGUCCACGUCGCAGCCCCUGUCGGAUUCUGGUGAAUCCGCGGAUUCUGCCGUAUAUCUC [A13G U26C A45G U60C A64G U72C]	0.26
UAACAGGGGGCCGCAGCAGAAGCGUUCACGACGCAGCUCCUGUCAGAUUCUGGUGAAUCUGCGAAUUCUGCUGUAUAUCUC [A13G U31A C38U]	0.31
UAACAGGGGGCCGCAGCAGAAGCGUUCACGUCGCAGCCCCCGUCAGAUUCUGGAGAAUCUGCGAAUUCUGCUGUAUAUCUC [A13G U41C U54A]	0.94
UAACAGGGGGCCGCAGCAGAAGCGCUCACGUCGCGGCCCCUGUCAGAUUCUGGUGAAUCUGCGAAUUCAGCUGUAUAUCUC [A13G U25C A35G U69A]	0.56
UAACAGGGGGCCGCAGCAGAAGCGUUCACGUCGCAGCCCCCGUCAGAUUCCGGUGAAUCUGCGAAUUCUGCUGUAUAUCUC [A13G U41C U51C]	0.88
